# Assay results reported in the supplement of paper PMC11741623.
# This is one part of the list. Interaction screen of human proteins with wild-type SARS-CoV-2 proteins by split-DHFR complementation in yeast, 1 µg/mL methotrexate. Value = fitness of the pair (three or more lineages) minus that of the viral protein without a human partner, on a scale set by negative (0) and fused positive (1) controls, mean of up to three cultures; higher = more likely to interact. Active = false discovery rate below 0.05 (one-sided t-test) in at least one culture. Nearly all pairs are not hits, and differences among them are mostly noise (correlation between cultures about 0.3); most hits were seen in one culture only. Human sequences are the Swiss-Prot entries looked up by gene name; the clone may be another isoform. NSP2 values were corrected by the authors for a growth advantage. Listed are human proteins with a hit and a random twelfth of the others.
# B1: OMG, P23515 (protein)
# chain: MEYQILKMSLCLFILLFLTPGILCICPLQCICTERHRHVDCSGRNLSTLPSGLQENIIHLNLSYNHFTDLHNQLTQYTNLRTLDISNNRLESLPAHLPRSLWNMSAANNNIKLLDKSDTAYQWNLKYLDVSKNMLEKVVLIKNTLRSLEVLNLSSNKLWTVPTNMPSKLHIVDLSNNSLTQILPGTLINLTNLTHLYLHNNKFTFIPDQSFDQLFQLQEITLYNNRWSCDHKQNITYLLKWMMETKAHVIGTPCSTQISSLKEHNMYPTPSGFTSSLFTVSGMQTVDTINSLSVVTQPKVTKIPKQYRTKETTFGATLSKDTTFTSTDKAFVPYPEDTSTETINSHEAAAATLTIHLQDGMVTNTSLTSSTKSSPTPMTLSITSGMPNNFSEMPQQSTTLNLWREETTTNVKTPLPSVANAWKVNASFLLLLNVVVMLAV
# B2: ERMP1, Q7Z2K6 (protein)
# chain: MEWGSESAAVRRHRVGVERREGAAAAPPPEREARAQEPLVDGCSGGGRTRKRSPGGSGGASRGAGTGLSEVRAALGLALYLIALRTLVQLSLQQLVLRGAAGHRGEFDALQARDYLEHITSIGPRTTGSPENEILTVHYLLEQIKLIEVQSNSLHKISVDVQRPTGSFSIDFLGGFTSYYDNITNVVVKLEPRDGAQHAVLANCHFDSVANSPGASDDAVSCSVMLEVLRVLSTSSEALHHAVIFLFNGAEENVLQASHGFITQHPWASLIRAFINLEAAGVGGKELVFQTGPENPWLVQAYVSAAKHPFASVVAQEVFQSGIIPSDTDFRIYRDFGNIPGIDLAFIENGYIYHTKYDTADRILTDSIQRAGDNILAVLKHLATSDMLAAASKYRHGNMVFFDVLGLFVIAYPSRIGSIINYMVVMGVVLYLGKKFLQPKHKTGNYKKDFLCGLGITLISWFTSLVTVLIIAVFISLIGQSLSWYNHFYVSVCLYGTATVAKIILIHTLAKRFYYMNASAQYLGEVFFDISLFVHCCFLVTLTYQGLCSAFISAVWVAFPLLTKLCVHKDFKQHGAQGKFIAFYLLGMFIPYLYALYLIWAVFEMFTPILGRSGSEIPPDVVLASILAGCTMILSSYFINFIYLAKSTKKTMLTLTLVCAITFLLVCSGTFFPYSSNPANPKPKRVFLQHMTRTFHDLEGNAVKRDSGIWINGFDYTGISHITPHIPEINDSIRAHCEENAPLCGFPWYLPVHFLIRKNWYLPAPEVSPRNPPHFRLISKEQTPWDSIKLTFEATGPSHMSFYVRAHKGSTLSQWSLGNGTPVTSKGGDYFVFYSHGLQASAWQFWIEVQVSEEHPEGMVTVAIAAHYLSGEDKRSPQLDALKEKFPDWTFPSAWVCTYDLFVF
# B3: C11orf87, Q6NUJ2 (protein)
# chain: MSARAPKELRLALPPCLLNRTFASPNASGSGNTGARGPGAVGSGTCITQVGQQLFQSFSSTLVLIVLVTLIFCLIVLSLSTFHIHKRRMKKRKMQRAQEEYERDHCSGSRGGGGLPRPGRQAPTHAKETRLERQPRDSPFCAPSNASSLSSSSPGLPCQGPCAPPPPPPASSPQGAHAASSCLDTAGEGLLQTVVLS
# B4: FBXL19-AS1, Q494R0 (protein)
# chain: MAEPGGRGDYRKDGRLPSLSRSPLSTTLGTSPACGLEIPPTSGARPDGSCSLPAPVYHLKSRQWKGMGRGYRQRWRLQGRGDCDMGCVVQASGLFPAEMRERTTKKMATSPLDLCAGACWEM
# B5: PNLIPRP3, Q17RR3 (protein)
# chain: MLGIWIVAFLFFGTSRGKEVCYERLGCFKDGLPWTRTFSTELVGLPWSPEKINTRFLLYTIHNPNAYQEISAVNSSTIQASYFGTDKITRINIAGWKTDGKWQRDMCNVLLQLEDINCINLDWINGSREYIHAVNNLRVVGAEVAYFIDVLMKKFEYSPSKVHLIGHSLGAHLAGEAGSRIPGLGRITGLDPAGPFFHNTPKEVRLDPSDANFVDVIHTNAARILFELGVGTIDACGHLDFYPNGGKHMPGCEDLITPLLKFNFNAYKKEMASFFDCNHARSYQFYAESILNPDAFIAYPCRSYTSFKAGNCFFCSKEGCPTMGHFADRFHFKNMKTNGSHYFLNTGSLSPFARWRHKLSVKLSGSEVTQGTVFLRVGGAVRKTGEFAIVSGKLEPGMTYTKLIDADVNVGNITSVQFIWKKHLFEDSQNKLGAEMVINTSGKYGYKSTFCSQDIMGPNILQNLKPC
# B6: DPP3, Q9NY33 (protein)
# chain: MADTQYILPNDIGVSSLDCREAFRLLSPTERLYAYHLSRAAWYGGLAVLLQTSPEAPYIYALLSRLFRAQDPDQLRQHALAEGLTEEEYQAFLVYAAGVYSNMGNYKSFGDTKFVPNLPKEKLERVILGSEAAQQHPEEVRGLWQTCGELMFSLEPRLRHLGLGKEGITTYFSGNCTMEDAKLAQDFLDSQNLSAYNTRLFKEVDGEGKPYYEVRLASVLGSEPSLDSEVTSKLKSYEFRGSPFQVTRGDYAPILQKVVEQLEKAKAYAANSHQGQMLAQYIESFTQGSIEAHKRGSRFWIQDKGPIVESYIGFIESYRDPFGSRGEFEGFVAVVNKAMSAKFERLVASAEQLLKELPWPPTFEKDKFLTPDFTSLDVLTFAGSGIPAGINIPNYDDLRQTEGFKNVSLGNVLAVAYATQREKLTFLEEDDKDLYILWKGPSFDVQVGLHELLGHGSGKLFVQDEKGAFNFDQETVINPETGEQIQSWYRSGETWDSKFSTIASSYEECRAESVGLYLCLHPQVLEIFGFEGADAEDVIYVNWLNMVRAGLLALEFYTPEAFNWRQAHMQARFVILRVLLEAGEGLVTITPTTGSDGRPDARVRLDRSKIRSVGKPALERFLRRLQVLKSTGDVAGGRALYEGYATVTDAPPECFLTLRDTVLLRKESRKLIVQPNTRLEGSDVQLLEYEASAAGLIRSFSERFPEDGPELEEILTQLATADARFWKGPSEAPSGQA
# B7: OTUB2, Q96DC9 (protein)
# chain: MSETSFNLISEKCDILSILRDHPENRIYRRKIEELSKRFTAIRKTKGDGNCFYRALGYSYLESLLGKSREIFKFKERVLQTPNDLLAAGFEEHKFRNFFNAFYSVVELVEKDGSVSSLLKVFNDQSASDHIVQFLRLLTSAFIRNRADFFRHFIDEEMDIKDFCTHEVEPMATECDHIQITALSQALSIALQVEYVDEMDTALNHHVFPEAATPSVYLLYKTSHYNILYAADKH
# B8: OR9Q1, Q8NGQ5 (protein)
# chain: MAEMNLTLVTEFLLIAFTEYPEWALPLFLLFLFMYLITVLGNLEMIILILMDHQLHAPMYFLLSHLAFMDVCYSSITVPQMLAVLLEHGAALSYTRCAAQFFLFTFFGSIDCYLLALMAYDRYLAVCQPLLYVTILTQQARLSLVAGAYVAGLISALVRTVSAFTLSFCGTSEIDFIFCDLPPLLKLTCGESYTQEVLIIMFAIFVIPASMVVILVSYLFIIVAIMGIPAGSQAKTFSTCTSHLTAVSLFFGTLIFMYLRGNSDQSSEKNRVVSVLYTEVIPMLNPLIYSLRNKEVKEALRKILNRAKLS
# B9: OR52N5, Q8NH56 (protein)
# chain: MPLFNSLCWFPTIHVTPPSFILNGIPGLERVHVWISLPLCTMYIIFLVGNLGLVYLIYYEESLHHPMYFFFGHALSLIDLLTCTTTLPNALCIFWFSLKEINFNACLAQMFFVHGFTGVESGVLMLMALDRYVAICYPLRYATTLTNPIIAKAELATFLRGVLLMIPFPFLVKRLPFCQSNIISHTYCDHMSVVKLSCASIKVNVIYGLMVALLIGVFDICCISLSYTLILKAAISLSSSDARQKAFSTCTAHISAIIITYVPAFFTFFAHRFGGHTIPPSLHIIVANLYLLLPPTLNPIVYGVKTKQIRKSVIKFFQGDKGAG
# B10: GNG3, P63215 (protein)
# chain: MKGETPVNSTMSIGQARKMVEQLKIEASLCRIKVSKAAADLMTYCDAHACEDPLITPVPTSENPFREKKFFCALL
# B11: GDF5OS, Q5U4N7 (protein)
# chain: MIQSSQPMSLKLTCSAFRLQRALRFLLGRLPWRVASGARRFRRWLNRYSYTVLSSWPERALISLKNRSRFLVRPNTRNRAFSWTCRAARSKPRPRRSTALPRSQASSSRHSWAEFLKFRKSFQMSNTSQPDPSRPGTERTSSKEAGCRPLGQLDSFSWAARPPPGAAGLAVSEGFFRKIRSSAPSSPSFSRALMSNTYLCFLTTGPRSSRENTQKSFPATSPREPVTSRLRGKAPALSPSRELSFTSAPF
# B12: SBSPON, Q8IVN8 (protein)
# chain: MRTLWMALCALSRLWPGAQAGCAEAGRCCPGRDPACFARGWRLDRVYGTCFCDQACRFTGDCCFDYDRACPARPCFVGEWSPWSGCADQCKPTTRVRRRSVQQEPQNGGAPCPPLEERAGCLEYSTPQGQDCGHTYVPAFITTSAFNKERTRQATSPHWSTHTEDAGYCMEFKTESLTPHCALENWPLTRWMQYLREGYTVCVDCQPPAMNSVSLRCSGDGLDSDGNQTLHWQAIGNPRCQGTWKKVRRVDQCSCPAVHSFIFI
# B13: TDO2, P48775 (protein)
# chain: MSGCPFLGNNFGYTFKKLPVEGSEEDKSQTGVNRASKGGLIYGNYLHLEKVLNAQELQSETKGNKIHDEHLFIITHQAYELWFKQILWELDSVREIFQNGHVRDERNMLKVVSRMHRVSVILKLLVQQFSILETMTALDFNDFREYLSPASGFQSLQFRLLENKIGVLQNMRVPYNRRHYRDNFKGEENELLLKSEQEKTLLELVEAWLERTPGLEPHGFNFWGKLEKNITRGLEEEFIRIQAKEESEEKEEQVAEFQKQKEVLLSLFDEKRHEHLLSKGERRLSYRALQGALMIYFYREEPRFQVPFQLLTSLMDIDSLMTKWRYNHVCMVHRMLGSKAGTGGSSGYHYLRSTVSDRYKVFVDLFNLSTYLIPRHWIPKMNPTIHKFLYTAEYCDSSYFSSDESD
# Assays:
# Assay in all cases: yeast fitness gain over the viral ORF with no human partner (scaled fitness); higher = more likely to interact
# SARS-CoV-2 NSP7 = biological target: SARS-CoV-2 NSP7
# Description: (§1)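 Split mouse DHFR complementation in pooled diploid yeast: human ORFeome clones carry one fragment and viral ORFs the other; barcoded lineages compete in 1 µg/mL methotrexate and fitness is read by barcode sequencing in up to three cultures.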
# SARS-CoV-2 ORF3B = biological target: SARS-CoV-2 ORF3B
# Description: as §1
# SARS-CoV-2 ORF6 = biological target: SARS-CoV-2 ORF6
# Description: as §1
# SARS-CoV-2 ORF10 = biological target: SARS-CoV-2 ORF10
# Description: as §1
# SARS-CoV-2 ORF9B = biological target: SARS-CoV-2 ORF9B
# Description: as §1
# SARS-CoV-2 S = biological target: SARS-CoV-2 S
# Description: as §1
# SARS-CoV-2 NSP6 = biological target: SARS-CoV-2 NSP6
# Description: as §1
# SARS-CoV-2 NSP2 = biological target: SARS-CoV-2 NSP2
# Description: as §1
# SARS-CoV-2 NSP5 = biological target: SARS-CoV-2 NSP5
# Description: as §1
# SARS-CoV-2 ORF7A = biological target: SARS-CoV-2 ORF7A
# Description: as §1
# SARS-CoV-2 ORF8 = biological target: SARS-CoV-2 ORF8
# Description: as §1
# [1] = biological target: SARS-CoV-2 ORF9Bwu (the 73-codon ORF)
# Description: as §1
binder,measurement,setting,value
B1,yeast fitness gain,SARS-CoV-2 NSP7,inactive: -0.0626
B2,yeast fitness gain,SARS-CoV-2 ORF3B,inactive: -0.0543
same,yeast fitness gain,SARS-CoV-2 ORF6,inactive: -0.122
B3,yeast fitness gain,SARS-CoV-2 ORF10,inactive: 0.0425
same,yeast fitness gain,SARS-CoV-2 ORF9B,inactive: -0.0389
same,yeast fitness gain,SARS-CoV-2 S,inactive: -0.0424
B4,yeast fitness gain,SARS-CoV-2 NSP6,inactive: -0.0342
B5,yeast fitness gain,SARS-CoV-2 NSP2,inactive: -0.315
same,yeast fitness gain,SARS-CoV-2 NSP5,inactive: 0.0558
same,yeast fitness gain,SARS-CoV-2 ORF7A,inactive: 0.15
same,yeast fitness gain,SARS-CoV-2 ORF8,inactive: 0.00767
B6,yeast fitness gain,SARS-CoV-2 NSP2,inactive: -0.31
B7,yeast fitness gain,SARS-CoV-2 NSP2,inactive: -0.0546
same,yeast fitness gain,SARS-CoV-2 NSP5,inactive: 0.0149
same,yeast fitness gain,SARS-CoV-2 ORF6,inactive: 0.00169
same,yeast fitness gain,SARS-CoV-2 ORF8,inactive: 0.00745
same,yeast fitness gain,SARS-CoV-2 ORF9B,inactive: -0.12
B8,yeast fitness gain,SARS-CoV-2 NSP2,inactive: -0.314
same,yeast fitness gain,SARS-CoV-2 NSP5,inactive: -0.116
same,yeast fitness gain,SARS-CoV-2 ORF8,inactive: 0.0552
same,yeast fitness gain,SARS-CoV-2 ORF9B,inactive: -0.161
same,yeast fitness gain,[1],inactive: -0.00299
same,yeast fitness gain,SARS-CoV-2 S,inactive: -0.228
B9,yeast fitness gain,SARS-CoV-2 NSP2,inactive: -0.417
same,yeast fitness gain,SARS-CoV-2 ORF6,inactive: -0.0563
B10,yeast fitness gain,SARS-CoV-2 NSP2,inactive: -0.131
same,yeast fitness gain,SARS-CoV-2 ORF3B,inactive: -0.118
same,yeast fitness gain,SARS-CoV-2 ORF6,inactive: -0.158
same,yeast fitness gain,SARS-CoV-2 ORF9B,inactive: -0.124
B11,yeast fitness gain,SARS-CoV-2 ORF10,inactive: 0.0899
same,yeast fitness gain,SARS-CoV-2 ORF3B,inactive: -0.167
B12,yeast fitness gain,SARS-CoV-2 ORF10,inactive: -0.0425
same,yeast fitness gain,SARS-CoV-2 ORF3B,inactive: 0.00762
B13,yeast fitness gain,SARS-CoV-2 ORF10,inactive: -0.123
